Measured values as given in patent US7119075B2, “Use of herbal agents for potentiation of bioefficacy of anti infectives” (priority 2003, dated 2006).

Tests used:
[1] = test system: Candida albicans ATCC 90028; assay: Inhibitory effect of bioenhancers alone; assay type: cell-based
[2] = test system: Candida glabrata ATCC 90030; assay: Inhibitory effect of bioenhancers alone; assay type: cell-based
[3] = test system: Candida parapsilosis ATCC 22019; assay: Inhibitory effect of bioenhancers alone; assay type: cell-based
M tuberculosis 616 = assay: microbe, parasite or virus in culture; settings: Mycobacterium tuberculosis
M tuberculosis 611 = assay: microbe, parasite or virus in culture; settings: Mycobacterium tuberculosis
M.tuberculosis H37Rv = settings: Rifampicin alone at 20 mg/kg, once a day 5 days a week for 4 weeks, lungs and spleen
M tuberculosis 615 = assay: microbe, parasite or virus in culture; settings: Mycobacterium tuberculosis

3′,5-Dihydroxy flavone 7-O-β-D-galacturonide-4′-O-β-D-glucopyranoside [pure molecule of Cuminum cyminum]
inhibitory effect ([1]; conc. 0.2 μg/ml): ++++ (No inhibition) | inhibitory effect ([1]; conc. 0.8 μg/ml): ++++ (No inhibition) | inhibitory effect ([1]; conc. 3.12 μg/ml): ++++ (No inhibition) | inhibitory effect ([1]; conc. 12.5 μg/ml): ++++ (No inhibition) | inhibitory effect ([1]; conc. 50 μg/ml): ++++ (No inhibition) | inhibitory effect ([1]; conc. 100 μg/ml): ++++ (No inhibition) | inhibitory effect ([2]; conc. 0.2 μg/ml): ++++ (No inhibition) | inhibitory effect ([2]; conc. 0.8 μg/ml): ++++ (No inhibition) | inhibitory effect ([2]; conc. 3.12 μg/ml): ++++ (No inhibition) | inhibitory effect ([2]; conc. 12.5 μg/ml): ++++ (No inhibition) | inhibitory effect ([2]; conc. 50 μg/ml): ++++ (No inhibition) | inhibitory effect ([2]; conc. 100 μg/ml): ++++ (No inhibition) | inhibitory effect ([3]; conc. 0.2 μg/ml): ++++ (No inhibition) | inhibitory effect ([3]; conc. 0.8 μg/ml): ++++ (No inhibition) | inhibitory effect ([3]; conc. 3.12 μg/ml): ++++ (No inhibition) | inhibitory effect ([3]; conc. 12.5 μg/ml): ++++ (No inhibition) | inhibitory effect ([3]; conc. 50 μg/ml): ++++ (No inhibition) | inhibitory effect ([3]; conc. 100 μg/ml): ++++ (No inhibition)

CO[C@H]1/C=C/O[C@@]2(C)Oc3c(C)c(O)c4c(O)c(c(/C=N/N5CCN(C)CC5)c(O)c4c3C2=O)NC(=O)/C(C)=C\C=C\[C@H](C)[C@H](O)[C@@H](C)[C@@H](O)[C@@H](C)[C@H](OC(C)=O)[C@@H]1C [Rifampicin]
MIC (M tuberculosis 616): 0.12 µg/mL (≈ 0.146 µM) | MIC (M tuberculosis 611): 0.06 µg/mL (≈ 0.0729 µM) | deduction in log 10 CFU (M.tuberculosis H37Rv): 2 log | MIC (M tuberculosis 615): 0.06 µg/mL (≈ 0.0729 µM)

O=C(/C=C/C=C/c1ccc2c(c1)OCO2)N1CCCCC1 [piperine]
inhibition at 0.2 µg/mL ([1]; Candida albicans, ATCC90028, conc. 0.2 μg/ml): 0% | inhibition at 0.8 µg/mL ([1]; Candida albicans, ATCC90028, conc. 0.8 μg/ml): 0% | inhibition at 3.12 µg/mL ([1]; Candida albicans, ATCC90028, conc. 3.12 μg/ml): 0% | inhibition at 12.5 µg/mL ([1]; Candida albicans, ATCC90028, conc. 12.5 μg/ml): 0% | inhibition at 50 µg/mL ([1]; Candida albicans, ATCC90028, conc. 50 μg/ml): 0% | inhibition at 100 µg/mL ([1]; Candida albicans, ATCC90028, conc. 100 μg/ml): 20% | inhibition at 0.2 µg/mL ([2]; Nakaseomyces glabratus, ATCC90030, conc. 0.2 μg/ml): 0% | inhibition at 0.8 µg/mL ([2]; Nakaseomyces glabratus, ATCC90030, conc. 0.8 μg/ml): 0% | inhibition at 3.12 µg/mL ([2]; Nakaseomyces glabratus, ATCC90030, conc. 3.12 μg/ml): 0% | inhibition at 12.5 µg/mL ([2]; Nakaseomyces glabratus, ATCC90030, conc. 12.5 μg/ml): 0% | inhibition at 50 µg/mL ([2]; Nakaseomyces glabratus, ATCC90030, conc. 50 μg/ml): 0% | inhibition at 100 µg/mL ([2]; Nakaseomyces glabratus, ATCC90030, conc. 100 μg/ml): 20% | inhibition at 0.2 µg/mL ([3]; Lodderomyces parapsilosis, ATCC22019, conc. 0.2 μg/ml): 0% | inhibition at 0.8 µg/mL ([3]; Lodderomyces parapsilosis, ATCC22019, conc. 0.8 μg/ml): 0% | inhibition at 3.12 µg/mL ([3]; Lodderomyces parapsilosis, ATCC22019, conc. 3.12 μg/ml): 0% | inhibition at 12.5 µg/mL ([3]; Lodderomyces parapsilosis, ATCC22019, conc. 12.5 μg/ml): 0% | inhibition at 50 µg/mL ([3]; Lodderomyces parapsilosis, ATCC22019, conc. 50 μg/ml): 0% | inhibition at 100 µg/mL ([3]; Lodderomyces parapsilosis, ATCC22019, conc. 100 μg/ml): 20%

Values after ≈ are worked out from the molar mass of the structure shown.
